According to the supplement of paper PMC4967469:

How the values were obtained:
Experiment in all cases: Viability of human cancer cell lines after 72 h of drug (GDSC screen)
Epothilone B = compound: C/C(=C\c1csc(C)n1)[C@@H]1C[C@@H]2O[C@]2(C)CCC[C@H](C)[C@H](O)[C@@H](C)C(=O)C(C)(C)[C@@H](O)CC(=O)O1 [Epothilone B]; details: top dose 0.032 µM; top dose inferred
Method: (§1)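 Human cancer cell lines in 384-well plates, medium with 10% serum, drug for 72 h over a 256-fold dose range (nine 2-fold or five 4-fold steps up to the top dose). Adherent lines were fixed and stained with the nucleic acid dye Syto60, suspension lines read with resazurin; signal relative to control wells, capped at 0 and 100%. One two-parameter sigmoid per drug and line, fitted in a mixed model over all curves with the slope shared within a line.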

TPCA-1 = compound: NC(=O)Nc1sc(-c2ccc(F)cc2)cc1C(N)=O [TPCA-1]; details: top dose 20 µM
Method: as §1

Y-39983 = compound: C[C@@H](N)c1ccc(C(=O)Nc2ccnc3[nH]ccc23)cc1 [Y-39983]; details: top dose 20 µM; top dose inferred
Method: as §1

PLX4720 = compound: CCCS(=O)(=O)Nc1ccc(F)c(C(=O)c2c[nH]c3ncc(Cl)cc23)c1F [PLX4720]; details: top dose 10 µM
Method: as §1

PHA-793887 = compound: CC(C)CC(=O)Nc1n[nH]c2c1CN(C(=O)C1CCN(C)CC1)C2(C)C [PHA-793887]; details: top dose 10.24 µM
Method: as §1

[1] = screen: GDSC drug entry 1371, top dose inferred

Cell Line	AUC (Epothilone B)	pIC50 (Epothilone B)	AUC (TPCA-1)	pIC50 (TPCA-1)	AUC (Y-39983)	pIC50 (Y-39983)	AUC (PLX4720; screen: GDSC drug entry 1036)	pIC50 (PLX4720; screen: GDSC drug entry 1036)	AUC (PLX4720; [1])	pIC50 (PLX4720; [1])	AUC (PHA-793887)	pIC50 (PHA-793887)
H2869 (mesothelioma, adherent)	0.746	7.91	0.809	4.87	0.868	< 4.70	0.979	< 5.00	0.982	< 5.00	0.769	5.32
H3118 (head and neck, adherent)	0.507	8.68	0.762	5.11	0.977	< 4.70	0.956	< 5.00	0.981	< 5.00	0.697	5.62
H3255 (lung adenocarcinoma, adherent)	0.609	8.37	0.926	< 4.70	0.958	< 4.70	0.965	< 5.00			0.911	< 4.99
HARA (lung squamous cell carcinoma, adherent)	0.579	8.47	0.849	4.72	0.901	< 4.70	0.968	< 5.00	0.981	< 5.00	0.486	6.23
HCC38 (breast, adherent)	0.583	8.46	0.893	< 4.70	0.957	< 4.70	0.986	< 5.00	0.974	< 5.00	0.854	5.04
HCC70 (breast, adherent)	0.63	8.34	0.94	< 4.70	0.878	4.70			0.977	< 5.00	0.419	6.41
HCC1143 (breast, adherent)	0.862	< 7.49	0.892	< 4.70	0.918	< 4.70	0.979	< 5.00	0.959	< 5.00	0.856	< 4.99
HCC1395 (breast, adherent)	0.902	< 7.49	0.94	< 4.70	0.935	< 4.70	0.977	< 5.00	0.961	< 5.00	0.966	< 4.99
HCC1419 (breast, adherent)	0.898	< 7.49	0.951	< 4.70	0.979	< 4.70	0.962	< 5.00	0.979	< 5.00	0.941	< 4.99
HCC1428 (breast, adherent)	0.89	< 7.49	0.974	< 4.70	0.983	< 4.70	0.983	< 5.00	0.986	< 5.00	0.97	< 4.99
HCC1569 (breast, adherent)	0.71	8.01	0.895	< 4.70	0.962	< 4.70	0.98	< 5.00	0.951	< 5.00	0.881	< 4.99
HCC1806 (breast, adherent)	0.441	8.85	0.882	4.74	0.961	< 4.70	0.955	< 5.00	0.987	< 5.00	0.554	6.05
HCC1937 (breast, adherent)	0.854	7.50	0.955	< 4.70	0.983	< 4.70	0.978	< 5.00	0.98	< 5.00	0.843	5.05
HCC1954 (breast, adherent)	0.715	8.04	0.985	< 4.70	0.984	< 4.70	0.984	< 5.00	0.949	< 5.00	0.712	5.55
HCC-15 (lung squamous cell carcinoma, adherent)	0.471	8.79	0.91	< 4.70	0.964	< 4.70	0.943	< 5.00	0.83	5.05	0.943	< 4.99
HCC-44 (lung adenocarcinoma, adherent)	0.308	9.23	0.771	5.12	0.881	< 4.70	0.943	< 5.00	0.967	< 5.00	0.529	6.12
HCC-56 (large intestine, adherent)	0.536	8.60	0.93	< 4.70	0.92	< 4.70	0.987	< 5.00	0.885	< 5.00	0.885	< 4.99
HCC-78 (lung adenocarcinoma, adherent)	0.873	< 7.49	0.86	< 4.70	0.973	< 4.70	0.983	< 5.00	0.981	< 5.00	0.612	5.86
HCC-827 (lung adenocarcinoma, adherent)	0.817	7.67	0.771	5.05	0.984	< 4.70	0.838	5.08	0.983	< 5.00	0.922	< 4.99
HCT-15 (large intestine, adherent)	0.342	9.15	0.737	5.20	0.937	< 4.70	0.955	< 5.00	0.976	< 5.00	0.987	< 4.99
HCT-116 (large intestine, adherent)	0.644	8.31	0.78	5.11	0.861	4.81	0.987	< 5.00	0.985	< 5.00	0.207	7.03
HDQ-P1 (breast, adherent)	0.727	8.00	0.898	< 4.70	0.979	< 4.70	0.956	< 5.00	0.952	< 5.00	0.943	< 4.99
HEC-1 (endometrium, adherent)	0.731	8.05	0.989	< 4.70	0.989	< 4.70	0.979	< 5.00	0.985	< 5.00	0.989	< 4.99

Cell Line	AUC (Epothilone B)	pIC50 (Epothilone B)	AUC (TPCA-1)	pIC50 (TPCA-1)	AUC (Y-39983)	pIC50 (Y-39983)	AUC (PLX4720; screen: GDSC drug entry 1036)	pIC50 (PLX4720; screen: GDSC drug entry 1036)	AUC (PLX4720; [1])	pIC50 (PLX4720; [1])	AUC (PHA-793887)	pIC50 (PHA-793887)
HGC-27 (stomach, adherent)	0.225	9.43	0.771	5.19	0.955	< 4.70	0.938	< 5.00	0.973	< 5.00	0.772	5.47
HLE (liver, adherent)	0.291	9.27	0.859	4.82	0.908	< 4.70	0.981	< 5.00	0.983	< 5.00	0.977	< 4.99
HMV-II (melanoma, adherent)	0.352	9.15	0.868	< 4.70	0.958	< 4.70			0.98	< 5.00	0.898	< 4.99
HN (head and neck, adherent)	0.946	< 7.49	0.989	< 4.70	0.987	< 4.70	0.886	5.01	0.918	< 5.00	0.987	< 4.99
HO-1-N-1 (head and neck, adherent)	0.495	8.71	0.932	< 4.70	0.972	< 4.70			0.949	< 5.00	0.832	5.23
HO-1-u-1 (head and neck, adherent)	0.586	8.47	0.969	< 4.70	0.973	< 4.70	0.976	< 5.00	0.987	< 5.00	0.817	5.27
HOP-92 (large cell lung carcinoma, adherent)	0.877	< 7.49	0.967	< 4.70	0.98	< 4.70			0.963	< 5.00	0.982	< 4.99
HOS (osteosarcoma, adherent)	0.315	9.17	0.992	< 4.70	0.992	< 4.70	0.962	< 5.00	0.99	< 5.00	0.992	< 4.99
HPAF-II (pancreas, adherent)	0.76	7.84	0.792	4.91	0.981	< 4.70			0.964	< 5.00	0.813	5.11
HSC-2 (head and neck, adherent)	0.248	9.39	0.963	< 4.70	0.989	< 4.70	0.974	< 5.00	0.984	< 5.00	0.969	< 4.99
HSC-3 (head and neck, adherent)	0.347	9.09	0.962	< 4.70	0.964	< 4.70			0.871	5.14	0.942	< 4.99
HSC-4 (head and neck, adherent)	0.763	7.81	0.962	< 4.70	0.962	< 4.70			0.928	< 5.00	0.927	< 4.99
HT55 (large intestine, adherent)	0.868	7.54	0.983	< 4.70	0.99	< 4.70	0.99	< 5.00			0.99	< 4.99
HT-3 (cervix, adherent)	0.805	7.79	0.879	< 4.70	0.98	< 4.70	0.986	< 5.00	0.985	< 5.00	0.803	5.29
HT-29 (large intestine, adherent)	0.292	9.28	0.857	4.79	0.969	< 4.70	0.722	5.58	0.93	< 5.00	0.645	5.79
HT-115 (large intestine, adherent)	0.874	7.58	0.984	< 4.70	0.988	< 4.70	0.991	< 5.00	0.991	< 5.00	0.991	< 4.99
HT-1080 (fibrosarcoma, adherent)	0.389	8.99	0.98	< 4.70	0.978	< 4.70	0.856	5.17	0.86	5.16	0.987	< 4.99
HT-1197 (bladder, adherent)	0.762	7.87	0.98	< 4.70	0.985	< 4.70	0.975	< 5.00	0.93	< 5.00	0.938	< 4.99
HT-1376 (bladder, adherent)	0.768	7.85	0.985	< 4.70	0.985	< 4.70	0.913	< 5.00	0.958	< 5.00	0.985	< 4.99
HTC-C3 (thyroid, adherent)	0.563	8.52	0.522	5.84	0.921	< 4.70			0.64	5.80	0.978	< 4.99
HeLa (cervix, adherent)	0.38	9.02	0.947	< 4.70	0.977	< 4.70	0.984	< 5.00	0.986	< 5.00	0.979	< 4.99
Hep 3B2_1-7 (liver, adherent)	0.534	8.61	0.853	4.81	0.974	< 4.70	0.92	< 5.00	0.941	< 5.00	0.987	< 4.99
Hs633T (fibrosarcoma, adherent)	0.309	9.18	0.828	5.03	0.867	4.89	0.911	5.01	0.973	< 5.00	0.865	5.19

pIC50: −log10 of the molar value. By IC50 is meant the dose at which the fit gives 50% viability; a limit (>, <) means that the fit lies beyond the doses tested. For AUC the same curve is integrated over the 256-fold range of doses and scaled to a fraction; it is 1 without any effect and falls as sensitivity rises. For some of these results: Where the top dose is marked as inferred, it comes from the curve model; the source does not state it. For some of these results: Drugs with an entry number were screened twice under separate entries, and the two screens often disagree.
